Measured values as given in the supplement of paper PMC10126150.
Values marked as one replicate rest on one cluster of the flow cell; about a third of the high ones do not repeat.

system: ATP; assay: switch fluorescence ratio, 500 uM ATP over buffer (Cy3 cluster intensity, sum of 5 cycles each) (fold (ratio)); higher = stronger signal-on switching upon ATP binding; sequences stand for … in TCGTCGGCAGCGTCAGATGTGTATAAGAGACAGTTTTTTTTTTTTTTTTTTTTTTTTT…TC; details: aptamer strand: ATP DNA aptamer (quencher-CACCTGGGGGAGTATTGCGGAGGAAGG + anchor), 100 nM annealed; ATP concentration: 500 uM; one replicate
In short: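 Exposure to 500 uM ATP lasted 15 min at 22 °C before imaging, and a selection-buffer image was taken beforehand, for Cy3-labelled switching-strand clusters on a modified Illumina MiSeq flow-cell annealed to 100 nM quencher-labelled ATP aptamer. Five buffer/ATP cycles were run with NaOH stripping and re-annealing between them. The fluorescence ratio per cluster is summed target-cycle over summed buffer-cycle Cy3 intensity, averaged per switch-domain sequence. Clusters outside 100-1000 RFU were excluded.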

Sequence | switch fluorescence ratio
TGCCGGTTAT | 0.99
TGCCGTAATC | 1.2
TGCCGTAGCA | 1.05
TGCCGTTCCC | 1.01
TGCCTAAGAG | 1.02
TGCCTAGTGT | 0.99
TGCCTCTGGC | 1
TGCCTCTTTC | 0.996
TGCCTGTGGC | 1.06
TGCCTGTGTT | 1.09
TGCCTTACCT | 1.23
TGCCTTCGGC | 1
TGCGACATCC | 1.11
TGCGACCCGT | 1.07
TGCGACCGCT | 1.05
TGCGACCTGA | 1.1
TGCGACGGCT | 1.04
TGCGAGACAA | 1.24
TGCGAGGCGG | 1.01
TGCGATGTG | 1.01
TGCGCAAGCT | 1.02
TGCGCACGAT | 1.09
TGCGCACTAG | 1.47
TGCGCAGGAT | 1.06
TGCGCCCTAA | 1.01
TGCGCCTATG | 1.08

Sequence | switch fluorescence ratio
TGCGCTGCGG | 0.974
TGCGCTGTTC | 1.26
TGCGCTGTTG | 1
TGCGGAGTTT | 1.01
TGCGGGATCC | 1.11
TGCGGGTGTT | 0.973
TGCGGTAAAC | 1.07
TGCGGTAGTT | 0.963
TGCGGTGTAC | 1.27
TGCGTAATTT | 1.02
TGCGTATGCG | 1.13
TGCGTATGTT | 0.984
TGCGTCATAA | 1.03
TGCGTCCGT | 1.07
TGCGTCGTAG | 1.06
TGCGTGCACC | 1.07
TGCGTTAGAG | 0.979
TGCTAAAGTC | 0.964
TGCTACGTGG | 1.01
TGCTAGGTGC | 1.46
TGCTAGTGCG | 1.01
TGCTATAACC | 1.02
TGCTATCGGT | 0.986
TGCTCAACGC | 1.04
TGCTCACTAA | 1.02
TGCTCGGTTG | 1

Sequence | switch fluorescence ratio
TGCTCGTTCT | 0.972
TGCTCGTTGC | 1.03
TGCTCTAGGT | 1.05
TGCTCTCCTT | 1.25
TGCTCTTATG | 1.01
TGCTGAATGC | 1.02
TGCTGACAGA | 0.976
TGCTGCAGCT | 0.98
TGCTGCATA | 1.02
TGCTGCGCCA | 1.08
TGCTGCTG | 0.965
TGCTGGAA | 1.01
TGCTGGCCGT | 1.01
TGCTGGGCAG | 0.979
TGCTGTGCCC | 0.986
TGCTTAAGCC | 0.993
TGCTTAATGT | 1.02
TGCTTAGGAT | 0.985
TGCTTAGTGG | 0.959
TGCTTATCAT | 0.99
TGCTTCATCT | 0.99
TGCTTGGAGT | 1.04
TGCTTGGATG | 1.07
TGCTTTGTAA | 1
TGGAAAAGCA | 1.05
